# Experimental data: PubChem BioAssay (NCATS)
# The inconclusive results got no clear call from the source; some entries with a clear call stand among them for comparison. Potencies of inconclusive entries are left out as doubtful fits. Activity calls are given as the source filed them. The call rests on the fitted dose curve; in most records, active means well fitted curve in the direction sought with a large enough effect; inconclusive means small, poorly fitted or top-dose-only effect, or another doubt; inactive means no such curve, though single readings can be large; an effect the other way counts as inactive or inconclusive.
# What was measured:
# [1] = system: Zika virus NS2B-NS3 protease (linked construct); test: Primary screen NINDS Rhodamine qHTS for Zika virus inhibitors (AID 1347160); further: nearly all actives have a fitted effect of over 55% in size
# Method in brief: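 Enzyme (25 nM, linked NS2B-NS3) was preincubated 15 min with compound in 10 mM Tris-HCl pH 8.0, 0.01% Tween 20. Rhodamine110 substrate (1.5 microM) was then added and fluorescence read at start and after 15 min.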
# [2] = HPAF-II Cancer Cell Toxicity qHTS against the NCATS CANVASS Library (AID 1347346); further: nearly all actives have a fitted effect of over 55% in size
# Method in brief: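 First, HPAF-II cells are plated (1000 cells/well) and held 4 h at 37 degrees C. Next, compounds are pin-transferred as an 11-point series. After 72 h, CellTiter-Glo is added and luminescence measured.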
# [3] = UWB1.289 Cancer Cell Toxicity qHTS against the NCATS CANVASS Library (AID 1347347); further: nearly all actives have a fitted effect of over 60% in size
# Method in brief: (§1)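 Quantitative HTS format: an 11-concentration series was applied to 1000 cells/well following a 4-hour attachment. Cultures ran 72 hours before ATP luminescence detection by CellTiter-Glo.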
# [4] = SW1088 Cancer Cell Toxicity qHTS against the NCATS CANVASS Library (AID 1347350); further: nearly all actives have a fitted effect of over 75% in size
# Method in brief: as §1
# [5] = qHTS for Antimalaria activity screened against the NCATS CANVASS Library (AID 1347380); further: nearly all actives have a fitted effect of over 40% in size;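 on activity change, negative = inhibition: Plasmodium falciparum strain Dd2 asexual parasites grown in red blood cells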
# Method in brief: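 Compounds are titrated over 11 concentrations onto Dd2 parasite cultures (0.3% parasitemia, 2.5% hematocrit). Growth over 72 h at 37C in low oxygen is measured as SYBR Green DNA fluorescence after lysis.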
# [6] = Secretion counterscreen for inhibitors of the SERCaMP assay screened against the NCATS CANVASS Library (AID 1347390); details: SH-SY5Y constitutive GLuc secretion, luminescence, 20 h; activity change, negative = inhibition: at 76.6 µM (top of the series);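 further: light from luciferase secreted into medium read as a measure of general secretion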
# Method in brief: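 SH-SY5Y cells expressing constitutively secreted GLuc, 1000 cells/well, attached 4 h at 37C, then exposed to compounds (0.001 - 77 uM, 11-pnt series) for 20 h. Coelenterazine added; luminescence read to flag secretory-pathway interferers.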
# [7] = OV-SAHO Cancer Cell Toxicity qHTS against the NCATS CANVASS Library (AID 1347348); details: OV-SAHO viability, CellTiter-Glo luminescence, 72 h; series mostly up to 38.3 µM; further: nearly all actives have a fitted effect of over 55% in size
# Method in brief: as §1
# [8] = Panc-1005 Cancer Cell Toxicity qHTS against the NCATS CANVASS Library (AID 1347349); further: nearly all actives have a fitted effect of over 60% in size
# Method in brief: as §1
# [9] = U-118MG Cancer Cell Toxicity qHTS against the NCATS CANVASS Library (AID 1347351)
# Method in brief: as §1
# [10] = UWB1.289-WTBRCA1 Cancer Cell Toxicity qHTS against the NCATS CANVASS Library (AID 1347354)
# Method in brief: (§2)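 First, 1000 cells go into each well and rest for 4 hours. Next, an 11-point dilution range is pinned in. Plates then incubate 72 hours before CellTiter-Glo addition and luminescence reading.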
# [11] = qHTS for activators of Nrf2/ARE signaling pathway screened against the NCATS CANVASS Library (AID 1347391); further: nearly all actives have a fitted effect of over 60% in size
# Method in brief: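 Beta-lactamase reporter signal, read as 460 and 530 nm emission under 405 nm excitation after 2 h CCF4 loading, reflected ARE activation in HepG2 cells treated 16 h with an 11-point series.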
# [12] = Viability qHTS for inhibitors of the SERCaMP assay screened against the NCATS CANVASS Library (AID 1347400); further: nearly all actives have a fitted effect of over 70% in size
# Method in brief: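 Seed SH-SY5Y-GLuc SERCaMP MJH297 cells at 1000 per well, incubate 4 h, add compounds across an 11-point range, incubate 48 h at 37C, then add CellTiter-Glo and read luminescence.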
# [13] = A2780 Cisplatin Sensitive Ovarian Cancer Cell Toxicity qHTS against the NCATS CANVASS Library (AID 1347353); further: nearly all actives have a fitted effect of over 60% in size
# Method in brief: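 Cells are plated at 750 per well and rest for 4 hours. Compounds are added across eleven concentrations, and incubated 72 hours before ATP is quantified by luminescence.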
# [14] = HEK-293 Cancer Cell Toxicity qHTS against the NCATS CANVASS Library (AID 1347355); further: nearly all actives have a fitted effect of over 65% in size
# Method in brief: as §2
# [15] = KB-8-5-11 Cancer Cell Toxicity qHTS against the NCATS CANVASS Library (AID 1347364); details: activity change, negative = toxicity: at 46.1 µM (top of the series); further: nearly all actives have a fitted effect of over 75% in size
# Method in brief: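 Terse: KB-8-5-11, 500 cells/well, 72 hr, 37C/5% CO2, 11-pt titration, CellTiter-Glo readout; confirmatory runs ± 1uM tariquidar in medium.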
# [16] = qHTS for Hypoxia signaling pathway (HIF-1) antagonists against the NCATS CANVASS Library (AID 1347374); further: nearly all actives have a fitted effect of over 60% in size
# Method in brief: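 Antagonism scored as loss of CoCl2-driven (60 uM stock added) HRE beta-lactamase signal, read by CCF4 FRET at 460/530 nm. Compounds were tested in an 11-point series on ME-180 reporter cells for 17 hrs at 37C, with parallel CellTiter-Glo cytotoxicity.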
# [17] = OV-KATE Cancer Cell Toxicity qHTS against the NCATS CANVASS Library (AID 1347345)
# Method in brief: as §1
# [18] = qHTS for inhibitors of Wild type Zika virus screened against the NCATS CANVASS Library (AID 1347396)
# Method in brief: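 Protection against wild-type Zika cytopathic effect is measured in African green monkey Vero 766 cells exposed to an 11-point compound series. Surviving cells are quantified by CellTiter Glo luminescence after 72 h.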
# [19] = qHTS for Activators of p53 Stress Response Pathway screened against the NCATS CANVASS Library (AID 1347388)
# Method in brief: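 p53RE-bla HCT-116 cells (4000/well) were pre-incubated for 5 h, then treated with compound (11 points) for 16 h at 37C. After 2 h with CCF4, the 460/530 nm ratio gave reporter activation; CellTiter-Glo measured viability.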
# [20] = qHTS for inhibitors of ER calcium dysfunction: SERCaMP assay screened against the NCATS CANVASS Library (AID 1347393); details: SH-SY5Y GLuc-SERCaMP secretion, thapsigargin, luminescence; activity change, negative = inhibition: at 76.6 µM (top of the series) unless noted; further: nearly all actives have a fitted effect of over 40% in size
# Method in brief: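 SH-SY5Y GLuc-SERCaMP, 1000 cells/well, 4 h attach; cpd 16 h, 37C/5% CO2; thapsigargin (added as 6x 600 nM) 4 h; coelenterazine; luminescence. Reduced reporter release = ER Ca stabilization.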
# Potency means the concentration at half of the fitted maximal effect; tags describe the fitted curve by direction and shape.
SMILES,Potency [1],Potency [2],Potency [3],Potency [4],Potency [5],Potency [6],Potency [7],Potency [8],Potency [9],Potency [10],Potency [11],Potency [12],Potency [13],Potency [14],Potency [15],Potency [16],Potency [17],Potency [18],Potency [19],Potency [20]
C=C[C@@]1(C)CC[C@@H]([C@H](C)C(C)=O)O1,"inconclusive [inhibitor, partial curve, poor fit]",inactive,inactive,inactive,"inconclusive [rising, partial curve, poor fit]","inconclusive [inhibitor, partial curve, poor fit]",–,–,–,–,–,–,–,–,–,–,–,–,–,–
C/C1=C/[C@@H](C)[C@H](O)C/C=C/CC/C=C/C(=O)O[C@@H]1[C@H](C)C(=O)CCCC1CC(=O)NC(=O)C1,"inconclusive [inhibitor, full curve, poor fit]","inconclusive [cytotoxic, partial curve]","inconclusive [cytotoxic, partial curve]",–,inactive,"inconclusive [inhibitor, single point]","inconclusive [cytotoxic, partial curve]","inconclusive [cytotoxic, partial curve]","inconclusive [cytotoxic, single point]","inconclusive [cytotoxic, partial curve, poor fit]","inconclusive [activator, partial curve]","inconclusive [cytotoxic, partial curve]",–,–,–,–,–,–,–,–
CC(C)[C@@H]1CC(=O)c2coc3c2[C@H]1C[C@@H](C)C3=O,"inconclusive [inhibitor, partial curve]",inactive,"inconclusive [cytotoxic, partial curve]","inconclusive [cytotoxic, single point]",–,–,"inconclusive [cytotoxic, partial curve]","inconclusive [cytotoxic, single point]","inconclusive [cytotoxic, partial curve, poor fit]",–,"inconclusive [activator, partial curve]","inconclusive [cytotoxic, single point]","inconclusive [cytotoxic, single point]","inconclusive [cytotoxic, single point]","inconclusive [cytotoxic, single point]","inconclusive [inhibitor, single point]",–,–,–,–
CC(=O)O[C@@H]1C=C2C(=O)OC[C@]2(O)[C@@]2(C)CCCC(C)(C)[C@H]12,active: 19.6 µM,–,active: 10.6 µM,–,active: 0.0188 µM,active: 15.3 µM,active: 5.94 µM,–,–,active: 21.1 µM,inactive,active: 12 µM,–,–,–,active: 7.47 µM,active: 5.94 µM,active: 26.1 µM,–,–
CC[C@H]1[C@@H](C)[C@@H](c2cc(OC)c(OC)cc2OC)[C@H](C)[C@@H](c2cc(OC)c(OC)cc2OC)[C@@]12C=C(OC)C(=O)C=C2OC,"inconclusive [inhibitor, partial curve]",–,–,–,"inconclusive [cytotoxic, full curve, poor fit]","inconclusive [inhibitor, partial curve]",–,active: 16.8 µM,"inconclusive [cytotoxic, single point]","inconclusive [cytotoxic, single point]","inconclusive [activator, partial curve]","inconclusive [cytotoxic, single point]",–,–,active: 29.6 µM,"inconclusive [inhibitor, single point]","inconclusive [cytotoxic, single point]","inconclusive [inhibitor, full curve]","inconclusive [activator, single point]",active: 0.86 µM
C/C=C/C(=O)[C@@H](C)C1=CC(=O)C2=C(O[C@@]34CC[C@H](O)C(C)(C)[C@@H]3CC[C@H](C)[C@@]4(C)C2)C1=O,active: 49.3 µM,active: 3.75 µM,active: 21.1 µM,active: 7.49 µM,"inconclusive [cytotoxic, full curve, poor fit]",active: 17.2 µM,–,–,"inconclusive [cytotoxic, single point]","inconclusive [cytotoxic, single point]",–,–,–,–,–,–,–,"inconclusive [inhibitor, partial curve]","inconclusive [activator, full curve, poor fit]","inconclusive [inhibitor, single point]"
